# According to PubChem BioAssay AID485360 (National Center for Advancing Translational Sciences (NCATS), 2010):
# About 1,500 (0.65%) of roughly 230,000 compounds were called active. Inconclusive results, whose numbers are uncertain, are shown with a selection of clear calls. The call rests on the fitted dose curve; in most records, active means well fitted inhibition curve with a large enough effect; inconclusive means small, poorly fitted or top-dose-only effect; inactive means no such curve, though single readings can be large or run the other way. Potencies beside an inconclusive call are fits to weak or partial responses and may not hold up.
# Biological target: Lethal(3)malignant brain tumor-like protein 1 (Homo sapiens) (UniProt Q9Y468)
# Sequence of UniProt Q9Y468 (Q9Y468 whole entry, looked up): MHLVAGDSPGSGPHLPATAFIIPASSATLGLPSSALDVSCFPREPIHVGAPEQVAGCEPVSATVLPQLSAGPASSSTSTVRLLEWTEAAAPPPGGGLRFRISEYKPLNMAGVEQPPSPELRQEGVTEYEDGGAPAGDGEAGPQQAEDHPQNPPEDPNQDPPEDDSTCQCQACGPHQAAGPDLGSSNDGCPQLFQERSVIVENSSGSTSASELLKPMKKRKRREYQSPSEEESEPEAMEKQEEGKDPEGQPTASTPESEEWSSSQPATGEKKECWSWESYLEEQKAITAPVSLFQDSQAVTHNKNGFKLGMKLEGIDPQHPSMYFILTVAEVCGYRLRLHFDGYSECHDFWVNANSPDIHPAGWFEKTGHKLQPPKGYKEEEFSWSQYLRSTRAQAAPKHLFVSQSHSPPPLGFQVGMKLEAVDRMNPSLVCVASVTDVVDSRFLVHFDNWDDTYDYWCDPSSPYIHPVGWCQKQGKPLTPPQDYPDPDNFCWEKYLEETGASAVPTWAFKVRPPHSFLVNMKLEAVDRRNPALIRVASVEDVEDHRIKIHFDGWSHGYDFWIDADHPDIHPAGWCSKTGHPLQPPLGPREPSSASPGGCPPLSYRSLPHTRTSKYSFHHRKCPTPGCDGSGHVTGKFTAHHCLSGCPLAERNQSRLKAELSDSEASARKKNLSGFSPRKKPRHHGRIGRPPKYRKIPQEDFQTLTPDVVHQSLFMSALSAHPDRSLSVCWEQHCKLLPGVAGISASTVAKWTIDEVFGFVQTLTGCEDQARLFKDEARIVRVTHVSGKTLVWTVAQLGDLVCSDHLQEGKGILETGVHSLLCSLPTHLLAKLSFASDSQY
# Assay: qHTS Assay for the Inhibitors of L3MBTL1; further: nearly all actives have a fitted effect of over 60% in size
# Settings: AlphaScreen L3MBTL1–H3K9me1 peptide binding; activity, negative = inhibition: at 57.1 µM (top of the series)
# Method in brief: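 L3MBTL1 50 nM + b-AHA-H3(1-15)K9me1 75 nM, 30 min RT; compound added, 30 min RT; streptavidin donor/Ni-chelate acceptor beads 10 ug/mL each final, 30 min RT dark; AlphaScreen read.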
# On the % scale 0 is the no-effect control and ±100 the full control effect; potency means the concentration at half of the fitted maximal effect; tags describe the fitted curve by direction and shape.
SMILES,"activity, negative = inhibition",Potency
CC1CN(S(=O)(=O)c2ccc(C(=O)Nc3ccc(S(=O)(=O)Nc4nccs4)cc3)cc2)CC(C)O1 (configuration not stated),inactive: -12.7%,
Cc1ccn(CC(=O)N/N=C/c2cc([N+](=O)[O-])ccc2O)n1,,"inconclusive: 25.1 µM [inhibitor, single point]"
COCCN=c1scc(-c2ccc3c(c2)NC(=O)CO3)n1/N=C(\C)c1ccc(O)cc1,,"inconclusive: 14.1 µM [inhibitor, partial curve]"
Cc1cc(=O)[nH]c(SCC(=O)N2CCCCC2)n1,,"inconclusive: 0.794 µM [inhibitor, single point]"
CCc1ccc2c(c1)C1(NN=C(c3ccc(C)cc3)S1)C(=O)N2 (configuration not stated),,"inconclusive: 12.6 µM [inhibitor, partial curve]"
CNS(=O)(=O)c1ccc(NC(=O)c2ccoc2C)cc1,inactive: -7.26%,
Cc1ccccc1Oc1nc2ccccc2n2cnnc12,,"inconclusive: 0.501 µM [inhibitor, full curve, poor fit]"
COc1ccc(/C=N/c2oc(C)c(C)c2C#N)c(OC)c1,inactive: -7.53%,
O=Cc1ccccc1-n1cccn1,inactive: -3.5%,
Cc1cc2c(cc1C)N(C(=O)CN1C(=O)c3ccccc3C1=O)C(C)(C)c1ssc(=S)c1-2,,"inconclusive: 25.1 µM [inhibitor, partial curve]"
COc1ccc(-c2n[nH]c(C(F)(F)F)c2-c2cc3ccccc3o2)c(O)c1,inactive: -4.28%,
C=CCNC(=S)NNC(=O)COc1c(Cl)cc(Cl)cc1Cl,,"inconclusive: 6.31 µM [inhibitor, single point]"
Cc1ccc(CNC(=O)c2ccc(N3CCc4ccccc43)c([N+](=O)[O-])c2)cc1,,"inconclusive: 31.6 µM [inhibitor, partial curve]"
Cc1cc[n+](CC(=O)c2ccc(NC(=O)c3ccccc3)cc2)c2ccccc12,inactive: -6.4%,
CCc1cc(C(=O)NNC(=S)Nc2cccc(C)c2)cs1,inactive: 65.9%,
O=S(=O)(NCc1ccc2c(c1)OCO2)c1cccc(S(=O)(=O)N2CCOCC2)c1,inactive: -9.02%,
CCc1ccc2c(c1)C1(NN=C(c3cccc4ccccc34)S1)C(=O)N2 (configuration not stated),,"inconclusive: 39.8 µM [inhibitor, single point]"
Cc1onc(-c2ccccc2Cl)c1C(=O)Oc1cccc2cccnc12,,"inconclusive: 28.2 µM [inhibitor, single point]"
O=c1[nH]c(-c2ccccn2)nc2ccccc12,,"inconclusive: 39.8 µM [inhibitor, single point]"
COC(=O)c1ccc(C(=O)OC)c(NC(=S)N2CCN(c3ccccn3)CC2)c1,,"inconclusive: 28.2 µM [inhibitor, single point]"
CCN1C(C(=O)c2ccccc2)=C(Nc2ccccc2C)c2ccccc2S1(=O)=O,,"inconclusive: 39.8 µM [inhibitor, partial curve]"
COCCCn1c(Cc2csc(Nc3cccc(Cl)c3)n2)nnc1SCC(=O)OC,,"inconclusive: 28.2 µM [inhibitor, single point]"
CC1=NN(c2ccc(Cl)c(C(=O)O)c2)C(=O)C1,,"inconclusive: 35.5 µM [inhibitor, single point]"

SMILES,"activity, negative = inhibition",Potency
COc1cc(/C=C2\SC(=S)N(NS(=O)(=O)c3ccccc3)C2=O)cc(OC)c1OC,,"inconclusive: 28.2 µM [inhibitor, partial curve]"
c1ccc(C2=NNC(c3ccco3)=Nc3ccccc32)cc1,,"inconclusive: 7.08 µM [inhibitor, full curve, poor fit]"
Cn1c(=O)cc2c3c(c(N4CCCCC4)ccc31)C(=O)c1ccccc1-2,,"inconclusive: 1.26 µM [inhibitor, full curve, poor fit]"
CC(C)c1ccc(NC(=O)C[n+]2ccn(C3=C([O-])c4ccccc4C3=O)c2)cc1,,"inconclusive: 31.6 µM [inhibitor, partial curve]"
CN(C)c1ccc(N=Cc2ccco2)cc1,,"inconclusive: 14.1 µM [inhibitor, partial curve]"
COc1ccc(S(=O)(=O)N(C)C)cc1NC(=O)Cc1ccc(S(=O)(=O)N2CCOCC2)s1,inactive: 0.035%,
CCc1c(C)[nH]n(-c2ccc(Oc3ccccc3)c(S(=O)(=O)O)c2)c1=O,,"inconclusive: 31.6 µM [inhibitor, single point]"
O=C(COC(=O)C1CC1)Nc1c(Cl)cccc1C(F)(F)F,,"inconclusive: 0.794 µM [inhibitor, single point]"
CC1CCC(C(C)C)C(OC(=O)Cn2c(-c3ccc(Br)cc3)[n+](C)c3ccccc32)C1 (configuration not stated),,"inconclusive: 0.708 µM [inhibitor, single point]"
Cc1ccc(NC(=O)CN2C(=O)N/C(=C/c3cccn3-c3ccc(C(=O)O)cc3)C2=O)cc1,,active: 2.24 µM
COc1ccccc1N/N=C1\COC(C)(C)CC1=O,,"inconclusive: 31.6 µM [inhibitor, partial curve]"
O=C1Nc2cc3c(cc2C1=O)sc1ccccc13,,"inconclusive: 31.6 µM [inhibitor, partial curve]"
Cc1ccc(N2CCN(S(=O)(=O)c3ccc(C)cc3)CC2)cc1,inactive: -2.15%,
Cc1[nH]n(-c2ccccc2)c(=O)c1C=Nc1ccc2[nH]c(=O)[nH]c2c1,inactive: 5.03%,
Clc1ccc(CN(Cc2ccc(Cl)cc2)c2nn[nH]n2)cc1,,"inconclusive: 3.98 µM [inhibitor, partial curve]"
C=CCN1C(c2cccc(C(F)(F)F)c2)=CS/C1=C(/C#N)c1nnc(N2CCOCC2)n1-c1ccccc1,inactive: -14.9%,
COc1ccccc1CCc1nnc(CCC(=O)NC(C)Cn2nc(C)cc2C)o1 (configuration not stated),inactive: 3.46%,
Oc1ccccc1C=NC1CCCCC1N=Cc1ccccc1O (configuration not stated),,"inconclusive: 15.8 µM [inhibitor, partial curve]"
CCOC(=O)C1CCN(C(=O)C2(NC(=O)Nc3cccc(F)c3)CCCCC2)CC1,,"inconclusive: 10 µM [inhibitor, partial curve]"
COc1ccccc1NCC(=O)N/N=C/c1sccc1C,,"inconclusive: 25.1 µM [inhibitor, partial curve, poor fit]"
COc1ccc(C2c3[nH]c4ccccc4c3CCN2CCCn2cccn2)c(C)c1C (configuration not stated),,"inconclusive: 14.1 µM [inhibitor, partial curve]"
Cc1ccc(C(=O)NC(=S)Nc2ccccc2C)cc1,,"inconclusive: 3.16 µM [inhibitor, full curve, poor fit]"
COc1ccc(CN(C)C(=O)c2ccc(Cl)c(S(=O)(=O)NCc3cccnc3)c2)cc1F,inactive: 15%,

SMILES,"activity, negative = inhibition",Potency
CCOc1ccc2oc(C(=O)N(CC)CC(=O)Nc3c(F)cccc3F)c(C)c2c1,inactive: -9.68%,
O=C(NCCCO)c1ccc2nc(-c3ccco3)c(-c3ccco3)nc2c1,,active: 28.2 µM
COc1cccc(C2c3c(-c4ccccc4O)n[nH]c3C(=O)N2Cc2ccco2)c1 (configuration not stated),,"inconclusive: 35.5 µM [inhibitor, partial curve]"
CCN(CC)S(=O)(=O)c1ccc(Cl)c(C(=O)Nc2ccc(Cl)cc2[N+](=O)[O-])c1,,"inconclusive: 39.8 µM [inhibitor, single point]"
Oc1ccc(N=Nc2ccc3c(c2)OCCO3)c2cccnc12,,"inconclusive: 1.41 µM [inhibitor, partial curve]"
Cc1nn(-c2ccccc2Cl)c(Cl)c1/C=N/Nc1cccc(C(=O)O)c1,,"inconclusive: 0.794 µM [inhibitor, single point]"
Nc1nc(CN2CCN(Cc3ccccc3)CC2)nc(Nc2ccccc2)n1,,"inconclusive: 28.2 µM [inhibitor, single point]"
CCn1c(SCC(=O)Nc2cc(C)on2)nc2sc3c(c2c1=O)CCCC3,,"inconclusive: 7.08 µM [inhibitor, single point]"
O=C(NCCCn1ccnc1)NC(C(F)(F)F)C(F)(F)F,inactive: -21.1% [at 11.4 µM],
O=[N+]([O-])c1ccccc1/C=N/N1CCN(c2ccc(Cl)cc2)CC1,,"inconclusive: 31.6 µM [inhibitor, partial curve]"
Cc1cc(Oc2cc(NN3CCCCC3)c([N+](=O)[O-])cc2[N+](=O)[O-])c(C(=O)c2ccccc2)cc1Cl,,"inconclusive: 4.47 µM [inhibitor, full curve]"
CCOC(=O)C1(C)/C(=N/Nc2ccccc2OC)C(=O)C(=O)N1c1ccccc1 (configuration not stated),,"inconclusive: 14.1 µM [inhibitor, partial curve]"
CCOC(=O)COn1c(=O)c(-c2ccco2)[n+]([O-])c2ccccc21,,"inconclusive: 35.5 µM [inhibitor, single point]"
Cc1ccc(C(=O)N/N=C/c2ccc([N+](=O)[O-])s2)cc1,inactive: -3.52%,
COc1cccc(=O)c2c(C)n(C)c(C)c12,,"inconclusive: 22.4 µM [inhibitor, single point]"
O=C(Cc1ccc(Br)cc1)N/N=C/c1ccc(-c2cccc(C(=O)O)c2)o1,,"inconclusive: 7.94 µM [inhibitor, full curve, poor fit]"
CC(/C=N/n1c(-c2cccnc2)n[nH]c1=S)=C\c1ccco1,,"inconclusive: 39.8 µM [inhibitor, single point]"
O=[N+]([O-])c1ccc(O)c(/C=N/n2c(-c3ccccc3)n[nH]c2=S)c1,inactive: 1.22% [at 2.29 µM],
Cc1ccc(S(=O)(=O)/N=C2/NC(=O)/C(=C/c3ccc(Br)o3)S2)cc1,,"inconclusive: 31.6 µM [inhibitor, single point]"
Cc1ccc(NC(=O)c2cc(-c3ccc(C)o3)nc3ccccc23)nc1,,"inconclusive: 25.1 µM [inhibitor, single point]"
CCOC(=O)N(Cc1ccccc1)C(C(=O)O)C(C(=O)O)N(Cc1ccccc1)C(=O)OCC (configuration not stated),,"inconclusive: 39.8 µM [inhibitor, single point]"
